Measurements taken from the supplement of paper PMC11417369.
± gives the standard deviation of the averaged measurements. The list shows a part of the results.

Tested on: PfAP2-I AP2 domain 3 (GST-tagged)
Assay: gcPBM binding intensity (ln(normalized median fluorescence intensity)); higher = stronger DNA binding
In short: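 Binding of GST-tagged P. falciparum DNA-binding domains, expressed in E. coli and used at about 25 μg on average, was carried out for 1 h in 1× PBS containing 1% milk, 0.2 mg/ml BSA, 0.5% salmon testes DNA and 0.03% Triton X-100. The target was an Agilent 4 × 180k array of primer-extended double-stranded 36-bp intergenic genomic probes plus negative controls, read with Alexa488 anti-GST antibody at 488 nm. Binding intensity is the highest Masliner-normalised natural-log median intensity across replicate spots of either probe orientation.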

Row | Sequence | gcPBM binding intensity (ln)
1 | AGATTTTGAAATTATAAAAAAATTTCACTTCATTTA [CACACA_negctrl_site888] | 7.3 ± 0.57
2 | TATTCTTACATCACCTCACACATTTAATATTCCTTA [CACACA_site4693] | 8 ± 0.62
3 | TGGTTTATTTATTAAGTGCATAAATGCAATATATAT | 10.6 ± 0.44
4 | TATTATATATTTAATAGTACATATAAAATAATAAGG [XGTACX_site4823] | 7.8 ± 0.33
5 | TATACAGATGGACACACACACATAAATAAATATATA [CACACA_site4863] | 8.04 ± 0.26
6 | TTTATTTTTAACAGTGCACACATAACTTAATTATAT [CACACA_site8681] | 10.69 ± 0.071
7 | TACTATAACCCACATACACACAAAAAAAAAAAAAAA [CACACA_site4454] | 8.29 ± 0.37
8 | CATAAAATTGTATTTTGTACACATTTTGTATACATT [XGTACX_site5705] | 7.64 ± 0.38
9 | TATATATAGAAACACACACACATATATATATATATT [CACACA_site4115] | 7.88 ± 0.46
10 | ATTTACATAAACGTCTGTACTAATATACAATTTTCT [XGTACX_site1700] | 7.79 ± 0.6
11 | TATTTTATTTCAAATCTTAATAATTGTAATTCTTCA [XGTACX_negctrl_site442] | 7.08 ± 0.53
12 | TTTTAATTAGAAATCATACACACATATATATATATA [CACACA_site174] | 9.26 ± 0.33
13 | ATTTTTAAAATAAATACATGCATATATTTATATGTT [TGCATGCA_site394] | 8.06 ± 0.74
14 | TGTGTAATACATAATACACACATGTATATGTCGCAT [CACACA_site4757] | 7.83 ± 0.41
15 | AAAAAAAAAGAGGCGTGTACATATATAATTTAAATT [XGTACX_site6827] | 7.93 ± 0.71
16 | ATAATAGAAACAAACAGTACACATACCTAAAAGGAA [XGTACX_site8647] | 7.75 ± 0.49
17 | TTATTAAAGTATAACTGTACATGCGAGTAAAAGAAT [XGTACX_site7388] | 8.5 ± 0.48
18 | TGTTCTAATATTTGTTGTACATTTACATTTCTCTCT [XGTACX_site2585] | 7.99 ± 0.67
19 | TCTTATATAACGAAAGTAAAATAATATGCTAAGCAT [CACACA_negctrl_site668] | 7.49 ± 0.47
20 | TTTTTTTTTTTTGAAGTGCATGTTACGATGAACAAA [GTGCAC_site9451] | 8.72 ± 0.42
21 | CTAAAAAGAGAAGTGTGTCCTCAAATTAATATAATT [XGTACX_site1057] | 7.71 ± 0.47
22 | GAAAAAAAAAAAAATACACACAAATTGGTATAGAAT [CACACA_site380] | 7.54 ± 0.8
23 | AATGAATATTAAAGGAGTACACATAATAAGTAAGAA [XGTACX_site7354] | 8.4 ± 0.77

Row | Sequence | gcPBM binding intensity (ln)
24 | TATATAAAAATATACACACACAAATGTATTTATATA [CACACA_site4284] | 7.44 ± 0.38
25 | AAAATAGAGTTGAATGCACACATACAAATTTTTAGG [CACACA_site9188] | 9.44 ± 0.36
26 | TTATTAAATTCTTTATTTAGCATATACAATAAAAGA [CACACA_negctrl_site1420] | 7.46 ± 0.44
27 | ATAAATAATTTATTCACACATACAAAAGTTTACAAA [CACACA_site5666] | 7.73 ± 0.4
28 | AAATATTATGTACGCACACACATTTTTGATATATAA [CACACA_site7755] | 8.57 ± 0.14
29 | CGCAACGTGAAAATACGTACACATACATTTTTATAT [XGTACX_site330] | 7.8 ± 0.41
30 | TATGGAACACACCTTAATATGTGATAAAATATGATA [GTGCAC_negctrl_site718] | 7.63 ± 0.52
31 | GTTATTAAATAATTCACACACATATATATATATATA [CACACA_site2260] | 9.48 ± 0.39
32 | TATTCCTATATACAGCGTACAAAAAATAATATGTAT [XGTACX_site8112] | 7.93 ± 0.44
33 | GGGGGAAGGTTGAAGGTGCTTGATGGAGAAAAATAT | 9.54 ± 0.15
34 | TTAATACATACATTCACACACACTAAATGTATATTT [CACACA_site4105] | 7.79 ± 0.57
35 | TAATCGTTTTATAAATGTACAAAATTGTTATGTTAT [XGTACX_site5147] | 7.66 ± 0.52
36 | AATAGGATATGGTACATTTTTTGTATACTTTTTGTT [CACACA_negctrl_site1804] | 7.62 ± 0.49
37 | AAACAAGTAATTGTTATTATTATTATATTATTATTA [CACACA_negctrl_site402] | 7.18 ± 0.26
38 | ATAAATTCTATGTATACACACATATATAATATATAT [CACACA_site2689] | 8.12 ± 0.47
39 | AAAAAATAGAATATGGGTACTAAAAAGATACAAACA [XGTACX_site4464] | 8.02 ± 0.73
40 | AAATTCGTAATAATGTGTACATAACTATACATAATT [XGTACX_site1717] | 7.67 ± 0.38
41 | ATTTATATGAAAATATGTACTTATATAAATTTATTT [XGTACX_site53] | 7.59 ± 0.36
42 | GATTATTTCTAAAAAGTGCATATTTAAAAATCTCCT | 9.815 ± 0.035
43 | TATTATATTATACATACACACCCATATAATATGTTT [CACACA_site8191] | 8.12 ± 0.59
44 | ATTGTTTTGTAATATGAAAAAATTGTGTAATGTGTC [CACACA_negctrl_site1510] | 8.18 ± 0.5
45 | AATATATAAGCTGTTCTATTCAAGAATTATATCTTA [CACACA_negctrl_site270] | 7.25 ± 0.59
46 | AGAAGATTAAACATTGCACACAAAAACATATTTTCT [CACACA_site8072] | 8.49 ± 0.4

Row | Sequence | gcPBM binding intensity (ln)
47 | CAAAGGAAACCTATCTGTACACATATTGGGGGAAAA [XGTACX_site3502] | 8.77 ± 0.13
48 | TGCCCTTTGGTTATAACACACATGCACCCGTAAATA [CACACA_site3842] | 9.175 ± 0.078
49 | ATATTTTATATAATAGTGCAAATAATATTAAATAAT | 10.8 ± 0.37
50 | ATTATAATATTTAATTGTACTTGTATTTATTCCAAA [XGTACX_site6417] | 7.72 ± 0.33
51 | AATAAATATATTAAAAGTACACAAATATTATTTAAT [XGTACX_site2482] | 7.79 ± 0.36
52 | AAGATTAAACATTGCACACAAAAACATATTTTCTAT [CACACA_site530] | 8.45 ± 0.46
53 | AAAAAAAATATATTACAAAACTTAGGATCCTAATAT [CACACA_negctrl_site470] | 7.43 ± 0.55
54 | CACATAAAATAAGGTGCATGCAAACGAGAAAATAAA [TGCATGCA_site75] | 9.5 ± 0.042
55 | ATATATATATAATAATGTACTTATAATAGATGTGTA [XGTACX_site4677] | 8.84 ± 0.085
56 | ATATATATATATATTTGTACTTACATTTTTATTTAT [XGTACX_site4551] | 9.2 ± 0.23
57 | AAAAATATAACCGTTACACACAAAATAATATGAGAA [CACACA_site3773] | 7.72 ± 0.66
58 | ATAATAAGGTTAAGCACACATATTACATATATAACT [CACACA_site3356] | 8.54 ± 0.28
59 | GAACGATATATTATATGTACATATATATATATATAT [XGTACX_site394] | 9.32 ± 0.23
60 | TCGTTTCATAATATTGTGCACATATATATTTACAAT | 10.8 ± 0.17
61 | CGTAAACGATATAAATGTACGAATATCTATATATTA [XGTACX_site8116] | 7.39 ± 0.38
62 | TATATATTGCCCTTCACACACACACCGATATATATA [CACACA_site5390] | 9.02 ± 0.2
63 | TTCTTTTAAAAATATATTTTAAGAAAATTTAATTTA [GTGCAC_negctrl_site237] | 7.33 ± 0.33
64 | GGATAAGAAAAGAAGTGTACATATATATATATATAT [XGTACX_site8290] | 9.38 ± 0.37
65 | TTTATTTTTTGAAACACACACAAAAAAAATGATACA [CACACA_site1881] | 8.04 ± 0.33
66 | ATAAAGCACACCGACACACACATATATATATATATA [CACACA_site1047] | 9.96 ± 0.67
67 | CAAAAAAAAAAACGGGTGCTAAATTTTATTTTTTAT | 9.26 ± 0.4
68 | AAAAAAAAAATATATATATATATATATATATATATA [GTGCAC_negctrl_site467] | 9.37 ± 0.23
69 | TATCATGGTTCGGATTGTACATATATGAATTTTTTT [XGTACX_site7478] | 7.67 ± 0.54

Row | Sequence | gcPBM binding intensity (ln)
70 | AAAAAAGAAATAAGGATACACACTATTGATAAAAGT [CACACA_site272] | 7.97 ± 0.66
71 | CCAGTGTGCACCTTGCGTACATATTAAATTAATTAA [XGTACX_site3729] | 10.6 ± 0.76
72 | TTGTTTCAAAATTAAACACACACAAAAAAAAAAAAA [CACACA_site8856] | 7.99 ± 0.64
73 | CTTATAATATTACGGGTGCTATAAATACATTATATT | 9.82 ± 0.23
74 | TAAATCAAAAACAACAAGTCATATTAAAGATGGTAT [CACACA_negctrl_site1321] | 7.68 ± 0.78
75 | AAGGAAAACAGTAGGTGTACCAAACGTCCTAGGAAC [XGTACX_site3659] | 7.71 ± 0.94
76 | TATATTTATATCATCACACATTTTTTTTTTCTTTTT [CACACA_site6150] | 7.34 ± 0.57
77 | GGATATATAAGATACACACACAAATTAAATATAAAA [CACACA_site7333] | 7.78 ± 0.8
78 | TAATATATAAATATATGTACATAATTAATAGGATAT [XGTACX_site237] | 8.05 ± 0.37
79 | TATTCCTAATTTAAAAGTACATATATATATATATAT [XGTACX_site3008] | 9.28 ± 0.26
80 | TTTTCTTTTTTCTTTTTAACTCTTACATAATAGGTG [CACACA_negctrl_site642] | 7.62 ± 0.63
81 | AAAAAAAAAAAAATTACACACATACCTATAAGAATA [CACACA_site7097] | 7.63 ± 0.4
82 | AATATATGTTAAAATGGTACACAATTATTATATATT [XGTACX_site6407] | 7.84 ± 0.23
83 | AAAAAAAAAAAAAAGAGTACTTTTTTCACATTCATC [XGTACX_site8795] | 8.31 ± 0.51
84 | TAAAATGAATAAAATTGTACTTAATAATATTTTAAA [XGTACX_site5532] | 7.33 ± 0.19
85 | TTTTTTTTTCTGTATACACACAAAATTTATTTTTTA [CACACA_site2873] | 7.92 ± 0.64
86 | TTAATAACGTAATGTAAATGTTTCATACCCTTTTTT [CACACA_negctrl_site988] | 7.47 ± 0.61
87 | ATATATATGTATGTATATATATATATATATGTTTGA [CACACA_negctrl_site107] | 8.11 ± 0.49
88 | ATAAAATAAAAACATGCACACTTTATTTTTTTTAAG [CACACA_site5545] | 8.7 ± 0.51
89 | AAAGAAGGGGGGGGAAAAAAAAATAAAAGAGGAAAA [XGTACX_negctrl_site92] | 9.63 ± 0.45
